Experimental data as given in PubChem BioAssay AID298 (DTP/NCI, 2004).
Results filed as inconclusive are left out. For part of its entries the source gives two or more results. This is not the full list of results. An entry can have further records. The values listed for one entry repeat one measurement across runs, samples, wells, individuals or studies. Signs of the kind (2×) give the number of equal values in this list.

Tested on: MX-1 breast xenograft, intrarenal, nude mice, tumor weight
Test: NCI In Vivo Anticancer Drug Screen. Data for tumor model Human Mammary Carcinoma MX-1 Xenograft (intrarenal inoculation) in NU/NU BALB/C (nude) mice
Details: endpoint: mean tumor weight change, higher = larger tumour
Description: The antitumor activity of compounds was measured in mice bearing transplantable tumors. Survival or tumor size were measured and the results are expressed as the measurement made in the treated group (T) divided by the measurement made in the vehicle treated control group (C). The tumor model used in this assay is Human Mammary Carcinoma MX-1 Xenograft (intrarenal inoculation) in NU/NU BALB/C (nude) mice

[1] = dose: 150.0 mg/kg/injection, schedule: Q04DX003 (ip), vehicle: saline with Tween-80
[2] = dose: 600.0 mg/kg/injection, schedule: Q04DX003 (ip), vehicle: saline with Tween-80
[3] = dose: 12.5 mg/kg/injection, schedule: Q04DX003 (ip), vehicle: water
[4] = dose: 5.0 mg/kg/injection, schedule: Q04DX003 (sc), vehicle: saline

How did the T/C (dose: 6.25 mg/kg/injection, schedule: Q04DX003 (ip), vehicle: water) turn out when CNCCN=c1ccc2c3c1c(O)c1c(O)ccc(=O)c1c3[nH]n2CCNCCO was run?
Its T/C is -56 % of control, 1 % of control, 3 % of control.

For O=NN(CCCl)C(=O)NCCCl, which T/C (dose: 27.0 mg/kg/injection, schedule: Q04DX003 (ip), vehicle: saline + alcohol) is on record?
The T/C was 6 % of control and 34 % of control.

Which T/C (dose: 75.0 mg/kg/injection, schedule: Q04DX003 (ip), vehicle: Klucel (hydroxypropylcellulose) (HPC)) does the source give for COc1nc(C(Cl)(Cl)Cl)c(Cl)c(OC)c1Cl here?
The T/C was 17 % of control and 57 % of control.

Clc1ccccc1C(Nc1cnccn1)Nc1cnccn1 was tested. Which T/C [1] did it give?
The T/C was 58 % of control and 100 % of control.

And the T/C [2]?
The T/C was 37 % of control and 74 % of control.

COC1C(N)C(OC2C(Oc3cccc4c(O)c5c(=O)oc6ccc(C)c7c(=O)oc(c34)c5c67)OC(C)C(O)C2(C)O)OC(C)C1O (centres undefined) was tested. Which T/C (dose: 5.0 mg/kg/injection, schedule: Q04DX003 (ip), vehicle: lactic acid) did it give?
Its T/C is 37 % of control and 76 % of control.

With O=NNc1cnccn1 as the compound, how does the T/C (dose: 100.0 mg/kg/injection, schedule: Q04DX003 (ip), vehicle: water) read?
The T/C was -100 % of control (2×) and -29 % of control.

How did the T/C (dose: 28.0 mg/kg/injection, schedule: Q04DX003 (ip), vehicle: Klucel (hydroxypropylcellulose) (HPC)) turn out when COc1cc2oc3c(C)c(=O)cc4oc(-c5ccccc5)cc(c2c2c1CCC(c1ccccc1)O2)c43 (centres undefined) was run?
The T/C was 50 % of control and 114 % of control.

For [N-]=[N+]=CC(=O)CCC(NC(=O)OCc1ccccc1)C(=O)OCc1ccccc1 (centres undefined), which T/C (dose: 150.0 mg/kg/injection, schedule: Q04DX003 (ip), vehicle: Klucel (hydroxypropylcellulose) (HPC)) is on record?
Its T/C is 15 % of control and 42 % of control.

For ClCC[N+]12CC[N+](CCCl)(CC1)C2, which T/C (dose: 50.0 mg/kg/injection, schedule: Q01DX010 (sc), vehicle: saline with Tween-80) is on record?
The T/C was 30 % of control and 73 % of control.

What does the source list for COc1cc([C@@H]2c3cc4c(cc3[C@@H](OC3OC5COC(C)OC5C(O)C3O)[C@H]3COC(=O)[C@H]23)OCO4)cc(OC)c1O (some centres undefined)?
T/C (dose: 8.0 mg/kg/injection, schedule: Q04DX003 (ip), vehicle: saline): 38 % of control and 91 % of control; T/C (dose: 16.0 mg/kg/injection, schedule: Q04DX003 (ip), vehicle: saline): 17 % of control, 20 % of control, 102 % of control; T/C (dose: 32.0 mg/kg/injection, schedule: Q04DX003 (ip), vehicle: saline): 4 % of control, 5 % of control, 96 % of control

For CC(C)(C[NH-])C[NH-].[Cl][Pt+2][Cl], which T/C (dose: 3.0 mg/kg/injection, schedule: Q04DX003 (ip), vehicle: water) is on record?
Its T/C is -100 % of control and 3 % of control.

How did the T/C [3] turn out when Nc1nc2ncn(O)c2c(=O)[nH]1 was run?
The T/C was 53 % of control and 103 % of control.

Which T/C (dose: 3.75 mg/kg/injection, schedule: Q04DX003 (ip), vehicle: saline with Tween-80) does the source give for COc1cccc(Sc2ccc([N+](=O)[O-])c3no[n+]([O-])c23)c1 here?
Its T/C is 46 % of control and 98 % of control.

What about the T/C (dose: 15.0 mg/kg/injection, schedule: Q04DX003 (ip), vehicle: saline with Tween-80) of the same compound?
The T/C was 57 % of control and 96 % of control.

What does the source list for c1ccc2[nH]c(CN(CCN(Cc3nc4ccccc4[nH]3)Cc3nc4ccccc4[nH]3)Cc3nc4ccccc4[nH]3)nc2c1?
T/C (dose: 12.5 mg/kg/injection, schedule: Q04DX003 (ip), vehicle: DMSO): 58 % of control and 93 % of control; T/C (dose: 25.0 mg/kg/injection, schedule: Q04DX003 (ip), vehicle: DMSO): 73 % of control and 100 % of control

Which T/C [4] does the source give for C/C=C(\C)c1cc(=O)c2c(C)cc3c(c2o1)C(=O)c1c(O)c(C2CC(C)(N(C)C)C(OC(C)=O)C(C)O2)cc(C2CC(N(C)C)C(O)C(C)O2)c1C3=O (centres undefined) here?
Its T/C is 57 % of control, 83 % of control, 93 % of control.

And the T/C (dose: 10.0 mg/kg/injection, schedule: Q04DX003 (sc), vehicle: saline)?
The T/C was 24 % of control, 72 % of control, 105 % of control.

What about the T/C (dose: 20.0 mg/kg/injection, schedule: Q04DX003 (sc), vehicle: saline) of the same compound?
The T/C was 13 % of control, 63 % of control, 73 % of control.

For Nc1ncn(C2OC(CO)C(O)C2O)c(=O)n1 (centres undefined), which T/C [4] is on record?
The T/C was 13 % of control and 39 % of control.

Which T/C (dose: 0.12 mg/kg/injection, schedule: Q04DX003 (ip), vehicle: saline) does the source give for COc1c2c(c(O)c3c4c(c(C)cc13)C1OC3(C(OC)OC5CC(C)(O)C(OC6CC(C)(O)C(O)C(C)O6)C(C)O5)OC1C(OC)(O4)C31CO1)C(=O)C(O)CC2OC1CC(C)(O)C(OC(C)=O)C(C)O1 (centres undefined) here?
The T/C was 33 % of control, 42 % of control, 94 % of control.

What about the T/C (dose: 0.25 mg/kg/injection, schedule: Q04DX003 (ip), vehicle: saline) of the same compound?
The T/C was 15 % of control (2×) and 64 % of control.

What does the source list for O=C(Nc1ccccc1CCl)Nc1ccccc1CCl?
T/C [1]: 51 % of control, 54 % of control, 92 % of control; T/C (dose: 300.0 mg/kg/injection, schedule: Q04DX003 (ip), vehicle: saline with Tween-80): 29 % of control, 46 % of control, 71 % of control; T/C [2]: 16 % of control, 45 % of control, 57 % of control

How did the T/C (dose: 2.0 mg/kg/injection, schedule: Q04DX003 (ip), vehicle: saline) turn out when COc1cc2c(c(OC)c1OC)-c1ccc(OC)c(=O)cc1[C@@H](NC(C)=O)CC2 was run?
Its T/C is -27 % of control and 6 % of control (2×).

Which T/C (dose: 50.0 mg/kg/injection, schedule: Q04DX003 (ip), vehicle: suspension in saline) does the source give for CNC(=O)OCc1nc(SC)n(C)c1COC(=O)NC here?
Its T/C is -91 % of control and -22 % of control.

What about the T/C (dose: 100.0 mg/kg/injection, schedule: Q04DX003 (ip), vehicle: suspension in saline) of the same compound?
The T/C was -73 % of control and -28 % of control.

For C#CCNC1=C(C)C(=O)C2=C(C1=O)[C@H](COC(N)=O)[C@]1(OC)[C@@H]3N[C@@H]3CN21, which T/C (dose: 7.5 mg/kg/injection, schedule: Q04DX003 (ip), vehicle: distilled water + Tween-80) is on record?
Its T/C is -100 % of control, 48 % of control, 95 % of control.

And the T/C (dose: 15.0 mg/kg/injection, schedule: Q04DX003 (ip), vehicle: distilled water + Tween-80)?
Its T/C is 40 % of control and 75 % of control.

With CCN(CC)CCn1[nH]c2c3ccc(=O)cc3sc3c(NCCN)ccc1c32 as the compound, how does the T/C [3] read?
Its T/C is 10 % of control, 17 % of control, 51 % of control.

How did the T/C (dose: 50.0 mg/kg/injection, schedule: Q04DX003 (ip), vehicle: saline) turn out when O=C[C@@H](CO)O[C@H](C=O)c1c[nH]c(=O)[nH]c1=O was run?
The T/C was 38 % of control, 58 % of control, 69 % of control.

With O=C(NC(Cc1ccc(I)cc1)C(=O)O)c1ccc(Br)cc1 (centres undefined) as the compound, how does the T/C (dose: 75.0 mg/kg/injection, schedule: Q04DX003 (ip), vehicle: sodium bicarbonate) read?
Its T/C is 63 % of control and 102 % of control.

How did the T/C (dose: 1200.0 mg/kg/injection, schedule: Q04DX003 (sc), vehicle: saline with Tween-80) turn out when CCOC1=Cc2c(oc3c(C(C)(C)C)cc(OCC)cc23)OC(C(C)(C)C)=C1 was run?
Its T/C is 64 % of control and 120 % of control.

CC(O)CCC(=O)c1ccoc1 (centres undefined) was tested. Which T/C (dose: 15.0 mg/kg/injection, schedule: Q01DX010 (ip), vehicle: saline) did it give?
Its T/C is 119 % of control and 157 % of control.

What about the T/C (dose: 30.0 mg/kg/injection, schedule: Q01DX010 (ip), vehicle: saline) of the same compound?
The T/C was 92 % of control and 158 % of control.

Which results are given for CO[C@@]12[C@@H]3N[C@@H]3CN1C1=C(C(=O)C(N3CCCC3)=C(C)C1=O)[C@@H]2COC(N)=O?
T/C (dose: 3.0 mg/kg/injection, schedule: Q04DX003 (ip), vehicle: saline with Tween-80): -51 % of control and -21 % of control; T/C (dose: 6.0 mg/kg/injection, schedule: Q04DX003 (ip), vehicle: saline with Tween-80): -90 % of control and 8 % of control

CO[C@@]12[C@H](COC(N)=O)C3=C(C(=O)C(C)=C(N)C3=O)N1C[C@@H]1N[C@@H]12 was tested. Which T/C (dose: 3.0 mg/kg/injection, schedule: Q04DX003 (sc), vehicle: saline) did it give?
The T/C was -28 % of control and 1 % of control.

What about the T/C (dose: 6.0 mg/kg/injection, schedule: Q04DX003 (sc), vehicle: saline) of the same compound?
Its T/C is -100 % of control and 1 % of control.

And the T/C (dose: 12.0 mg/kg/injection, schedule: Q04DX003 (sc), vehicle: saline)?
Its T/C is -90 % of control and -13 % of control.

Which T/C (dose: 125.0 mg/kg/injection, schedule: Q04DX003 (ip), vehicle: saline with Tween-80) does the source give for C[C@]12CC[C@H](OC(=O)Cc3ccc(N(CCCl)CCCl)cc3)CC1=CC[C@@H]1[C@@H]2CC[C@]2(C)C(=O)CC[C@@H]12 here?
The T/C was -60 % of control, 10 % of control, 18 % of control.

What about the T/C (dose: 250.0 mg/kg/injection, schedule: Q04DX003 (ip), vehicle: saline with Tween-80) of the same compound?
The T/C was -92 % of control, -3 % of control, 14 % of control.

And the T/C (dose: 500.0 mg/kg/injection, schedule: Q04DX003 (ip), vehicle: saline with Tween-80)?
Its T/C is -100 % of control (2×) and 1 % of control.

And the T/C (dose: 1000.0 mg/kg/injection, schedule: Q04DX003 (ip), vehicle: saline with Tween-80)?
The T/C was -100 % of control (2×) and 1 % of control.

With NC(=O)c1[nH]cnc1O as the compound, how does the T/C (dose: 200.0 mg/kg/injection, schedule: Q04DX003 (ip), vehicle: saline with Tween-80) read?
The T/C was 69 % of control and 103 % of control.
